Test results reported in PubChem BioAssay AID1508623 (National Center for Advancing Translational Sciences (NCATS), 2021).
Hit rate of the full screen: of about 48,000 compounds, about 450 (0.94%) were called active. Inconclusive results (about 19%) are left out. Calls follow the shape of the dose curve; as a rule, active = well fitted inhibition curve with a large enough effect; inconclusive = small, poorly fitted or top-dose-only effect; inactive = no such curve, though single readings can be large or run the other way. This is one part of the list.

Assay: Primary qHTS for Identification of Small Molecule Inhibitors of Huntingtin Promoter Activity; also: nearly all actives have a fitted effect of over 50% in size
Settings: HEK293 HTT promoter firefly luciferase reporter (activity 0% = vehicle and -100% = no light), 24 h; series mostly up to 57.5 µM; activity change, negative = inhibition: at the top concentration
Procedure, shortened: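 HEK293 Fluc reporter, 2,500 cells/well, 24 h pre-culture; cpds up to 57.5 uM final, 24 h 37 degrees C; Dual-Glo, 10 min RT; normalized vehicle = 0%, zero RLU = -100%.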
Potency is read from the fitted curve at half-maximal effect.

Row | Structure (SMILES) | activity change, negative = inhibition | Potency
1 | O=C(CSc1nc(-c2ccc(F)cc2)cc(C(F)(F)F)n1)NCc1ccccc1 | inactive: -25.5% | –
2 | COc1ccc(OCC(=O)NCC2(N3CCN(C)CC3)CCCCC2)cc1 | inactive: -3.9% | –
3 | CCCCNC(=O)CCC(=O)NNc1nc2ccccc2c2nc(-c3ccccc3)nn12 | inactive: -3.43% | –
4 | Cc1cccc(C(=O)Nc2c3c(nn2-c2ccc(Cl)cc2)CS(=O)(=O)C3)c1 | inactive: -22.3% | –
5 | O=[N+]([O-])c1cc(-c2nc(-c3ccccc3)no2)ccc1NCC1CCCO1 (stereo not drawn) | inactive: 25.4% | –
6 | CCOC(=O)c1ccc2c(c1)N(Cc1cccc(OC)c1)C(=O)c1ccccc1S2(=O)=O | inactive: -16.6% | –
7 | CC(C)(C)OC(=O)N1CCC(c2c(C(=O)NC3CCN(Cc4ccccc4)CC3)cnn2-c2cccc(F)c2)CC1 | inactive: -8.15% | –
8 | Cc1ccc(-c2cc(C(=O)NC(C)c3ccccc3)c3ccccc3n2)cc1C (stereo not drawn) | inactive: -12.2% | –
9 | Cc1ccc2ncc(C(=O)NCc3ccccc3Cl)c(=O)n2c1 | inactive: -17% | –
10 | CC(=O)Nc1ccccc1-c1nc2ccccc2n(CC(=O)c2ccc(C)c(C)c2)c1=O | inactive: 7.07% | –
11 | CCC(CC)C(=O)Nc1ccc(OCc2cc(=O)n3ccsc3n2)cc1 | inactive: 16.6% | –
12 | COc1ccc(C)cc1NCc1nnc2n1CCCCC2 | inactive: -8.67% | –
13 | Cc1cc(OC(C)C(=O)N(Cc2ccco2)Cc2ccccc2F)cc(C)c1Cl (stereo not drawn) | inactive: -14.8% | –
14 | COc1ccc(-c2cc(C(=O)Oc3cccc(C)c3)c3ccccc3n2)cc1 | inactive: 1.73% | –
15 | Cc1ccc(CCNC(=O)C2CCN(c3nnc(C)c4c(C)n(-c5ccccc5)nc34)CC2)cc1 | inactive: -26.3% | –
16 | COc1ccc(NC(=O)C2CCCN(C(=O)c3cnn(-c4ccc(F)cc4)c3-n3cccc3)C2)cc1 (stereo not drawn) | inactive: -23.8% | –
17 | COc1ccc(NC(=O)CSc2nc3ncccc3[nH]2)c(OC)c1 | inactive: -11.8% | –
18 | Cn1c(=O)cc(OCC(=O)N2CCN(c3ccccc3)CC2)c2ccccc21 | inactive: -5.93% | –
19 | CCOc1cccc2sc(N(Cc3cccnc3)C(=O)C3CCCCC3)nc12 | inactive: -16.1% | –
20 | CCc1ccccc1NC(=O)c1ccc(F)c(S(=O)(=O)NC2CCCCCC2)c1 | inactive: -37.6% | –
21 | Cc1ccc(NC(=O)CSc2nc3ccccc3c3nc(CCn4cncc4C)nn23)cc1F | inactive: -29.1% | –
22 | CN1CCN(C(c2ccccc2Cl)c2sc3nc(-c4ccco4)nn3c2O)CC1 (stereo not drawn) | inactive: -3.58% | –
23 | CCC(=O)N1CCc2cc(Br)cc(S(=O)(=O)N3CCN(c4ccc(C(C)=O)cc4)CC3)c21 | inactive: -2.54% | –
24 | O=C(Cn1c(=O)n(Cc2ccco2)c(=O)c2ccc(C(=O)NC3CCCC3)cc21)Nc1ccc(F)cc1 | inactive: -3.44% | –
25 | COc1ccc(-n2nc(C(=O)NCCc3ccc(Cl)cc3)c3c4ccccc4n(C)c3c2=O)cc1Cl | inactive: 6.45% | –

Row | Structure (SMILES) | activity change, negative = inhibition | Potency
26 | Cc1cc(C)n(CC(=O)Nc2ccc(F)c(F)c2)c(=O)c1C#N | inactive: 0.96% | –
27 | CC(C)C[C@@H](N)[C@H](O)C(=O)N[C@H](C(=O)N[C@H](C(=O)N[C@@H](CC(=O)O)C(=O)O)C(C)C)C(C)C | inactive: -22.4% | –
28 | COc1ccc(CCNC(=O)c2c(O)nc3cc(C)ccn3c2=O)cc1OC | inactive: -4.45% | –
29 | O=C(Cn1nc2c(cc1=O)CCCC2)Nc1ccc(F)cc1F | inactive: 3.86% | –
30 | COc1ccc(N2CCN(C(=O)Cc3coc4ccc(C)cc34)CC2)cc1 | inactive: 20.8% | –
31 | COc1ccc(C)cc1NC(=O)C(=O)NCCc1sc(-c2ccc(Cl)cc2)nc1C | inactive: -8.28% | –
32 | CC(=O)c1cccc(NC(=O)CCS(=O)(=O)c2cc3c(cc2C)NC(=O)CO3)c1 | inactive: -4.79% | –
33 | CCc1noc(-c2ccc(NC(C)c3ccccc3)c([N+](=O)[O-])c2)n1 (stereo not drawn) | inactive: -18.7% | –
34 | CCN(CC)C(=O)C1=C(C)Nc2nc3ccccc3n2C1c1ccc(Br)cc1 (stereo not drawn) | inactive: -1.13% | –
35 | CCOC(=O)c1c(NC(C)=O)c2c3c(sc2n1Cc1nc(-c2ccc(Cl)cc2)oc1C)CCCC3 | inactive: -13.4% | –
36 | CCOc1ccccc1C1N=C(N)Nc2nc3ccccc3n21 (stereo not drawn) | inactive: -15.8% | –
37 | Cc1nc(N2CCCC2)c2c(C(=O)Nc3ccc(C)c(Cl)c3)c(C)oc2n1 | inactive: 0.0454% | –
38 | CCC(CC)C(=O)Nc1cc(-c2cn3cccnc3n2)ccc1OC | inactive: -14.6% | –
39 | Cc1ccccc1-c1nnc(CN2CCN(c3cc(Cl)ccc3C)CC2)o1 | inactive: -16.4% | –
40 | COc1ccc(C(CC(=O)Nc2ccc(C)cn2)N2Cc3ccccc3C2=O)cc1OC (stereo not drawn) | inactive: -15.3% | –
41 | CCOC(=O)N1CCC(NC(=O)c2ccc3c(c2)N(Cc2cccc(C)c2)C(=O)c2ccccc2S3(=O)=O)CC1 | inactive: -34.1% | –
42 | COc1cccc(CNC(=O)c2nnn(CC(=O)Nc3cc(Cl)ccc3C)c2N)c1 | inactive: -17.1% | –
43 | O=S(=O)(c1ccc(F)cc1)N1CCC(Oc2ccc(-n3cnnn3)cc2)CC1 | inactive: -3.19% | –
44 | COc1cccc(CNC(=O)Cn2c(=O)oc3cc(S(=O)(=O)N4CCCC4)ccc32)c1 | inactive: -19.4% | –
45 | CCC(=O)N1CCc2cc(Br)cc(S(=O)(=O)CCC(=O)Nc3cccc(CC)c3)c21 | inactive: -5.13% | –
46 | CCn1cc(C(=O)N2CCN(c3cc(Cl)ccc3C)CC2)c2cc(OC)c(OC)cc2c1=O | inactive: -6.4% | –
47 | CC(NC(=O)C1(c2cccs2)CCOCC1)c1ccccc1 (stereo not drawn) | inactive: -7.77% | –
48 | Cc1ccc(CN2CCSc3ccc(C(=O)Nc4ccc(Cl)cc4)cc32)cc1 | inactive: 19.3% | –
49 | CCOc1ccc(CCNC(=O)CCCc2cc(-c3ccc(OCC)cc3)on2)cc1 | – | active: 316 nM
50 | O=C(Cc1csc2ccccc12)NCc1cccc(Br)c1 | inactive: 11.2% | –

Row | Structure (SMILES) | activity change, negative = inhibition | Potency
51 | Cc1ccc2nc(/C(C#N)=C/c3cccc(Br)c3)[nH]c2c1 | inactive: -3.86% | –
52 | CN(C)S(=O)(=O)n1cc(/C=C(\NC(=O)c2ccccc2F)C(=O)NCCCn2ccnc2)c2ccccc21 | inactive: 1.28% | –
53 | Cc1ccccc1CN1CCC(CNc2ncnc3onc(-c4ccc(Cl)cc4)c23)CC1 | inactive: -0.183% | –
54 | OC(c1cc(C(F)(F)F)nc2c(C(F)(F)F)cccc12)C1CCCCN1 (stereo not drawn) | inactive: -19% | –
55 | Cc1ccc(NC(=O)C2CCCN(c3ncnc4c3nc3n4CCCCC3)C2)cc1F (stereo not drawn) | inactive: -47.2% | –
56 | CCOc1ccc(NC(=O)c2c(NC(=O)c3ccco3)sc3c2CCC(C(C)(C)C)C3)cc1 (stereo not drawn) | inactive: -3.96% | –
57 | O=C(O)CC(NS(=O)(=O)c1ccc(Cl)s1)c1ccccc1 (stereo not drawn) | inactive: -5.33% | –
58 | COc1cc(NS(=O)(=O)c2ccc(NC(=O)C(C)Oc3ccc(Cl)cc3Cl)cc2)nc(OC)n1 (stereo not drawn) | inactive: -21.8% | –
59 | O=C(Nc1cccc(C(F)(F)F)c1)C1CCN(c2nnc(-n3cccc3)s2)CC1 | inactive: -4.66% | –
60 | COc1ccc(Nc2c(-c3ccc(Cl)cc3)nc3cnccn23)cc1OC | inactive: -14.3% | –
61 | CCC12CN3CC(C)(CN(C1)C3c1ccc(O)cc1O)C2=O (stereo not drawn) | inactive: -15.4% | –
62 | Cc1cc(C)cc(Oc2coc3c(CN4CCN(C)CC4)c(O)ccc3c2=O)c1 | inactive: -5.53% | –
63 | COc1cccc(C(=O)Nc2cc(-c3cn4cccnc4n3)ccc2C)c1OC | inactive: 4.07% | –
64 | Cc1ccc(OCC(=O)Nc2ccccc2C(=O)OCc2cc(=O)n3nc(C4CC4)sc3n2)cc1 | inactive: -11.1% | –
65 | Cc1nc2ccccn2c(=O)c1NC(=O)c1c(F)cccc1F | inactive: 1.9% | –
66 | CC1CCN(C(=O)c2c(NC(=O)c3ccccc3F)sc3c2CCC(C(C)(C)C)C3)CC1 (stereo not drawn) | inactive: -11.4% | –
67 | CCn1cc(S(=O)(=O)c2ccc(OC)cc2)c(=O)c2cc(F)c(N3CCC(C)CC3)cc21 | inactive: 7.76% | –
68 | CNCCCC12CCC(c3ccccc31)c1ccccc12 | inactive | –
69 | CCCN(CCC)CCCNC(=O)C1CCC(CNS(=O)(=O)c2cccc3nsnc23)CC1 (stereo not drawn) | inactive: 2.83% | –
70 | CCCCNS(=O)(=O)c1ccc2nc(-c3cccnc3)cc(C(=O)NCCC)c2c1 | inactive: -19.6% | –
71 | CC(=CC(=O)Nc1ccccc1C(=O)O)c1ccc2ccccc2c1 | inactive: 8.78% | –
72 | COCCNC(=O)CSc1c2c(nc3cc(Cl)ccc13)CCCC2 | inactive: -0.812% | –
73 | NCCNc1cccc2ccccc12 | inactive: -12.4% | –
74 | NCCCCCc1nnc(SCc2ccc(F)cc2)o1 | inactive: -29.8% | –
75 | COCCCNC(=O)c1ccc2nc(Cc3ccc(OC)cc3)oc2c1 | inactive: -15.1% | –

Row | Structure (SMILES) | activity change, negative = inhibition | Potency
76 | CCCCSc1nnc2n(-c3cccc(C)c3)c(=O)c3c4c(sc3n12)CCCC4 | inactive: -19.2% | –
77 | COc1ccc(NC(=O)COCc2cc(-c3ccco3)on2)cc1 | inactive: -11.8% | –
78 | Fc1ccccc1Oc1ncnc2c1oc1ccccc12 | inactive: 14.8% | –
79 | Clc1ccc(-c2csc(=Nc3ccccc3)n2Cc2ccc3c(c2)OCO3)cc1 | inactive: -11.6% | –
80 | CCOC(=O)C1CCN(C(=O)CSc2n[nH]c(-c3ccccc3)n2)CC1 | inactive: 0.615% | –
81 | Cc1cccc(OCc2nc(C#N)c(NCc3ccccc3Cl)o2)c1 | inactive: 7.92% | –
82 | Cc1ccc2nc(COc3ccc(NC(=O)COc4ccccc4F)cc3)cc(=O)n2c1 | inactive: 3.46% | –
83 | COc1ccc(NC(=O)CSc2nc3ccccc3[nH]2)cc1 | inactive: 2.76% | –
84 | Cc1ccc(C)c(N2CCN(C(=O)Cn3c(=O)c4cccn4c4ccc(F)cc43)CC2)c1 | inactive: -4.48% | –
85 | CCCCC(CC)CNC(=O)CCCc1nnc2n(CCC)c(=O)c3sccc3n12 (stereo not drawn) | inactive: -6.62% | –
86 | Cc1ccc(NC(=O)CSCn2nnc3c(=O)[nH]c(Cc4ccc(F)cc4)nc32)c(C)c1 | inactive: -16% | –
87 | COc1cc2c(=O)c(C(=O)c3ccc(C)c(C)c3)cn(Cc3ccccc3)c2cc1OC | inactive: -6.79% | –
88 | COc1ccc(-c2cc3nc(C)c(CCC(=O)N4CCN(c5ccccc5)CC4)c(C)n3n2)c(OC)c1 | inactive: -10% | –
89 | Cc1cc(C)c2nc(NC(=O)c3ccc(S(=O)(=O)N4CCCC4)cc3)sc2c1 | inactive: -19.9% | –
90 | CCOc1cc(C2C(C(=O)OC)=C(C)NC3=C2C(=O)c2ccccc23)c(Br)cc1OC (stereo not drawn) | inactive: -33.7% | –
91 | Cc1cn2cc(C(=O)N(C)CCO)cc(N[C@@H]3CCOc4cccc(C)c43)c2n1 | inactive: -12.1% | –
92 | Cc1coc2c1C(=O)C(=O)c1c-2ccc2c1CCCC2(C)C | inactive: 5.27% | –
93 | CCOCCCNC(=O)Cn1nc(C)n2c(cc3cc(C)ccc32)c1=O | inactive: 2% | –
94 | O=C(COc1ccccc1Cl)Nc1nc2c(s1)CCCC2 | inactive: 26% | –
95 | Fc1ccc(CNCCCSc2nnnn2-c2ccccc2)cc1 | inactive: -15.5% | –
96 | COc1ccc(Cn2c(C(=O)O)c(CNCc3ccc(OC)cc3OC)c3ccc(C)cc32)cc1 | inactive: -29.7% | –
97 | COc1ccc(NC(=O)CSCc2cc(=O)c3cc(C)ccc3[nH]2)cc1 | inactive: -6.3% | –
98 | CC(=O)OCC(=O)[C@@]1(O)[C@H](C)C[C@H]2[C@@H]3CCC4=CC(=O)C=C[C@]4(C)[C@@]3(F)[C@@H](O)C[C@@]21C | inactive: -3.89% | –
